Source: PubChem BioAssay (NCATS)
This is one part of the list. Further columns of the screen follow, without active or inactive calls. Most of these compounds were active or inconclusive in the main read-out, so they are no random draw. The note in brackets gives the kind of curve behind each potency; many fits are weak.

Experiment: qHTS Assay for Lipid Storage Modulators (AID 1519)
Conditions: Drosophila S3 cells, BODIPY lipid droplet/cell ratio, laser cytometry, cells loaded with oleic acid
How it was run: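 Cells seeded at 5,000 per well were treated with compounds over a concentration series and loaded with oleic acid (400 uM, as added). Lipid droplet fluorescence (488 nm excitation, 500-530 nm channel) was read by laser-scanning cytometry and normalized to 20 uM Triacsin C.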

[1] = measured here: cell count channel max response
[2] = measured here: lipid (BODIPY) channel AC50
[3] = measured here: lipid channel max response
[4] = measured here: cell number channel AC50
Tags tell the direction and shape of the fitted curve.

Row | SMILES | max response [1] | AC50 [2] | max response [3] | AC50 [4]
1 | COc1ccc(C(Cl)=C(c2ccc(OC)cc2)c2ccc(OC)cc2)cc1 | 21.7% | 35500 nM [rising, single point] | 52.5% | 
2 | COc1ncc2nc(C)c(=O)n(C[C@H]3CCCO3)c2n1 | 31.5% | 15800 nM [rising, partial curve, poor fit] | 42.8% | 
3 | Cc1noc(C)c1-c1nc(NCc2cccs2)c2ccccc2n1 | 9% | 1000 nM [rising, full curve, poor fit] | 7.37% | 
4 | CCCC[C@H]1C(=O)N(c2ccccc2)N(c2ccc(O)cc2)C1=O | -19.5% | 15800 nM [falling, single point] | -45.7% | 
5 | COc1ccc(C(=O)N2CCC3(CC2)CCN(c2ncccn2)CC3)cc1 | 10.1% | 22.4 nM [rising, full curve, poor fit] | 20.9% | 
6 | Clc1ccccc1-c1cc(NCc2ccccc2)ncn1 | 12.3% | 7080 nM [rising, single point] | 14.9% | 
7 | CN(Cc1ccco1)c1ncncc1-c1ccccc1C(F)(F)F | 28.9% | 7940 nM [rising, partial curve, poor fit] | 35.1% | 
8 | NNC(=O)c1ccncc1 | 19.4% | 15800 nM [rising, partial curve] | 30.9% | 
9 | Cn1c(=O)c(CCc2ccccc2)nc2cnc(N3CCOCC3)nc21 | 23.3% | 794 nM [rising, full curve] | 30% | 
10 | O=C(Oc1ccccc1)N1CCC2(CC1)CCN(c1ccccn1)CC2 | -6.62% | 112 nM [rising, partial curve, poor fit] | -1.7% | 
11 | COc1ccccc1CCn1c(=O)c(-c2ccc(F)c(F)c2)nc2cncnc21 | 11.6% | 794 nM [rising, full curve, poor fit] | 20% | 
12 | COC(=O)N1CCC2(CC1)CCN(c1ccncc1)CC2 | 27.1% | 224 nM [rising, partial curve, poor fit] | 36.3% | 
13 | CC(=O)NCCNc1ncnc2ccc(-c3ccc(C(=O)N(C)C)cc3)cc12 | 20.7% | 15800 nM [rising, partial curve, poor fit] | 33.1% | 
14 | COC(=O)N1CCC2(CCCN(C(=O)Nc3ccc(OC)cc3)C2)CC1 | 8.17% | 10 nM [rising, full curve, poor fit] | 3.16% | 
15 | Cc1noc(C)c1-c1nc(NCc2ccccc2)c2ccccc2n1 | 2.45% | 22.4 nM [rising, full curve, poor fit] | 10.6% | 
16 | CN(C)c1ncc2nc(-c3ccccc3)c(=O)n(C)c2n1 | 11.5% | 3160 nM [rising, single point] | 16.5% | 
17 | CCC1OC(=O)C(C)[C@@H](O[C@H]2C[C@@](C)(OC)C(O)C(C)O2)C(C)[C@@H](O[C@@H]2OC(C)CC(N(C)C)C2O)[C@@](C)(O)CC(C)C2NC(COCCOC)O[C@H](C2C)[C@@]1(C)O (stereo not given in full) | 29.7% | 39800 nM [rising, single point] | 51.5% | 
18 | COc1c(CC(=O)c2cc3c(cc2O)OC(C)(C)C(O)C3)ccc2c1C=CC(C)(C)O2 (stereo not given) | -9.19% | 15800 nM [falling, partial curve, poor fit] | -45.2% | 
19 | COc1cccc(Cn2c(=O)cnc3cnc(Oc4cccc(Cl)c4)nc32)c1 | 20.2% | 39.8 nM [rising, full curve, poor fit] | 29.5% | 
20 | CCNc1ncc2nc(-c3cccs3)c(=O)n(CCC#N)c2n1 | 7.93% | 1780 nM [rising, full curve, poor fit] | 10.1% | 
21 | COc1ccc(-c2cc(=O)c3ccccc3o2)cc1OC | 7.6% | 7.94 nM [rising, full curve, poor fit] | 7.81% | 
22 | CN1CCN(c2ncc3nc(-c4ccccc4)c(=O)n(-c4ccccc4)c3n2)CC1 | 26.8% | 708 nM [rising, full curve, poor fit] | 34.5% | 
23 | CN(C)c1ncc2nc(-c3ccc(F)cc3)c(=O)n(-c3ccccc3)c2n1 | 28.2% | 4470 nM [rising, full curve, poor fit] | 32.3% | 
24 | COc1ccc(CNc2ncncc2-c2ccoc2)c(OC)c1 | 22.5% | 316 nM [rising, full curve, poor fit] | 27.3% | 
25 | N#CCCn1c(=O)cnc2cnc(Oc3cccc(Cl)c3)nc21 | 26% | 10000 nM [rising, partial curve, poor fit] | 31% | 
26 | Clc1ccccc1-c1cc(NCCN2CCOCC2)ncn1 | 29.5% | 1120 nM [rising, full curve] | 32.9% | 
27 | O=C(c1ccco1)N1CCC[C@@]2(CCN(c3ccncc3)C2)C1 | 23.4% | 39.8 nM [rising, full curve] | 31.2% | 
28 | COc1ccccc1CNc1cc(-c2cccc(NS(C)(=O)=O)c2)ncn1 | -0.471% | 2820 nM [rising, partial curve, poor fit] | 8.74% | 

Row | SMILES | max response [1] | AC50 [2] | max response [3] | AC50 [4]
29 | COCCn1c(=O)c(-c2cccs2)nc2cnc(OCc3ccccc3)nc21 | 21.7% | 79.4 nM [rising, full curve, poor fit] | 26.5% | 
30 | C[C@](O)(C(=O)Nc1ccc(S(=O)(=O)c2ccccc2)cc1)C(F)(F)F | -2.17% | 7940 nM [falling, full curve, poor fit] | -30.8% | 
31 | CNc1nc(-c2ccccc2C)nc2ccccc12 | -7.57% |  | -31.7% | 1000 nM [rising, full curve]
32 | COc1ccc(-n2c(=O)c(-c3cc(F)cc(F)c3)nc3cnc(N4CCNCC4)nc32)cc1 | 15.2% | 100 nM [rising, full curve, poor fit] | 15.5% | 
33 | COCCNc1nc(-c2ccc(N(C)C)cc2)nc2ccccc12 | -8.58% | 31.6 nM [rising, full curve, poor fit] | -18.2% | 
34 | CC(C)c1c(O)ccc2c1CCC1C(C)(C)CCC[C@@]21C (stereo not given in full) | -10.1% | 31600 nM [falling, single point] | -57% | 
35 | COc1c2ccoc2c(OC)c2oc(=O)ccc12 | 23.1% | 1000 nM [rising, full curve] | 39.1% | 
36 | COc1ccccc1-c1ccc2ncnc(N3CCOCC3)c2c1 | -3.16% | 1000 nM [rising, full curve, poor fit] | 9.01% | 
37 | COc1ccc(-c2nc3cnc(N4CCOCC4)nc3n(CCc3ccccc3)c2=O)cc1 | 12.9% | 794 nM [rising, partial curve, poor fit] | 6.54% | 
38 | Nc1ccc(C(=O)Oc2ccccc2)c(O)c1 | -2.43% | 3550 nM [rising, single point] | 4.44% | 
39 | CC(=O)N1CCC2(CCN(Cc3ccc(C#N)cc3)CC2)CC1 | 4.89% |  | 6.17% | 3160 nM [rising, partial curve, poor fit]
40 | O=C(Oc1ccccc1)N1CCC2(CCCN(c3cccc(-c4ccccc4)c3)C2)CC1 | 21.4% | 112 nM [rising, full curve, poor fit] | -24.4% | 
41 | Cc1ccccc1-c1nc(NC2CC2)c2ccccc2n1 | 20.5% | 7.08 nM [rising, full curve, poor fit] | 28.4% | 
42 | COCCNc1ccnc(-c2c(C)noc2C)n1 | 21% | 20000 nM [rising, partial curve] | 31.4% | 
43 | COC(=O)N1CCC2(CCCN(C(c3ccccc3)c3ccccc3)C2)CC1 | 19.8% | 11200 nM [rising, partial curve, poor fit] | 31.6% | 
44 | COc1ccc(/C=C/C(=O)O)cc1OC | 15.7% | 28200 nM [rising, single point] | 37.3% | 
45 | CN(C)Cc1ccccc1-c1nccc(NC2CC2)n1 | 29.3% | 31600 nM [rising, single point] | 43.9% | 
46 | CC(=O)NCCNc1ncncc1-c1ccccc1CN(C)C | 23.7% | 891 nM [rising, partial curve, poor fit] | 30.2% | 
47 | COc1ccc(NC(=O)N2CCCC3(CCN(C(=O)c4cccc(F)c4)CC3)C2)cc1 | 13% | 2000 nM [rising, full curve, poor fit] | 23.8% | 
48 | C[C@H](N=C(NC#N)Nc1ccncc1)C(C)(C)C | 120% |  | 151% | 28200 nM [rising, partial curve, poor fit]
49 | O=c1c(CCc2ccccc2)nc2cnc(N3CCNCC3)nc2n1-c1ccccc1 | 26% | 20000 nM [rising, single point] | 32.3% | 
50 | O=C(c1cccc(F)c1)N1CCC2(CC1)CCN(c1ncccn1)CC2 | 3.93% | 355 nM [rising, full curve, poor fit] | 19.3% | 
51 | O=C(c1cnccn1)N1CCC2(CCCN(c3ccncc3)C2)CC1 | 27.1% | 20000 nM [rising, single point] | 34.3% | 
52 | CCCc1ncc(C[n+]2ccccc2C)c(N)n1 | 24% | 39800 nM [rising, single point] | 44.5% | 
53 | O=c1c(-c2ccccc2)nc2cncnc2n1Cc1ccccc1 | 18.6% |  | 26.3% | 447 nM [rising, full curve, poor fit]
54 | O=C(c1cnccn1)N1CCC2(CC1)CCN(c1cccc(-c3ccccc3)c1)CC2 | -4.48% | 39.8 nM [rising, full curve, poor fit] | 9.26% | 
55 | COc1ccc(C(=O)N2CCC3(CCN(Cc4ccncc4)CC3)CC2)cc1 | 23.2% | 316 nM [rising, partial curve] | 31.3% | 
